# Structures can show the parent of a compound that is named as a salt. In all, about 2,000 compounds were measured (“fractional viability relative to vehicle”: median about 0.92, lowest 2% from about 0.11 on). The list shows a part of the results.
# System: TYKNU
# Assay: fractional viability relative to vehicle; TYKNU is a high-grade serous ovarian cancer line; higher = less growth inhibition
# Details: 72 h, genotype: OPA1 knockout (sgOPA1 #2)
# Procedure, shortened: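 TYKNU control cells or lentiCRISPRv2 knockout derivatives were seeded at 500 cells per well into drug-stamped 384-well plates holding a ~2100-compound library at 2 or 10 μM, in duplicate. Cells were grown at 37 °C in 5% CO2 in RPMI 1640 with 10% FBS, and drug treatment lasted 72 h. Viability was read by Cell Titer Glo luminescence. Duplicate treatment wells were averaged and normalised to duplicate control wells from the same plate position.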
smiles,measurement,setting,value
CC(C)(C)NC[C@H](O)COc1nsnc1N1CCOCC1 [Timolol Maleate],fractional viability,2uM,0.992
same,fractional viability,10uM,0.918
Cc1ccc(C(=O)Nc2ccc(CN3CCN(C)CC3)c(C(F)(F)F)c2)cc1C#Cc1cnc2cccnn12,fractional viability,2uM,0.67
same,fractional viability,10uM,0.106
O=C(Nc1cccc2c(=O)cc(-c3nnn[nH]3)oc12)c1ccc(OCCCCc2ccccc2)cc1 [Pranlukast],fractional viability,2uM,1.12
same,fractional viability,10uM,0.952
COc1cc(OC)c2c(=O)[nH]c(-c3cc(C)c(OCCO)c(C)c3)nc2c1,fractional viability,2uM,1.1
same,fractional viability,10uM,1.22
O=C(c1cccc(Cl)c1F)N1CCN(Cc2cccc(Nc3nccs3)n2)CC1,fractional viability,2uM,0.727
same,fractional viability,10uM,0.767
CC(C)[C@H]1C(=O)N[C@@H](CCCNC(=N)N)C(=O)NCC(=O)N[C@@H](CC(=O)O)C(=O)N[C@H](Cc2ccccc2)C(=O)N1C [Cilengitide],fractional viability,2uM,0.735
same,fractional viability,10uM,0.827
Cn1cc(-c2ccc(F)c(C(F)(F)F)c2)nc1C1CCN(c2ncnc3[nH]ncc23)CC1,fractional viability,2uM,0.855
same,fractional viability,10uM,0.528
O=C(Nc1c[nH]nc1-c1nc2ccc(CN3CCOCC3)cc2[nH]1)NC1CC1,fractional viability,2uM,0.902
same,fractional viability,10uM,0.755
CCOC(=O)[C@H](CCc1ccccc1)N[C@H]1CCc2ccccc2N(CC(=O)O)C1=O [Benazepril HCl],fractional viability,2uM,1.11
same,fractional viability,10uM,1.11
COC1=C(OC)C(=O)C(CCCCCCCCCCO)=C(C)C1=O [Idebenone],fractional viability,2uM,0.894
same,fractional viability,10uM,1.03
CCOC(=O)c1ccc(OC(=O)CCCCCNC(=N)N)cc1 [Gabexate Mesylate],fractional viability,2uM,0.918
same,fractional viability,10uM,1.05
O=C(NC1CCN(CCCCC2(C(=O)NCC(F)(F)F)c3ccccc3-c3ccccc32)CC1)c1ccccc1-c1ccc(C(F)(F)F)cc1 [Lomitapide Mesylate],fractional viability,2uM,0.887
same,fractional viability,10uM,0.0779
COc1ccc(C(=O)CC2(O)C(=O)Nc3c(Cl)ccc(Cl)c32)cc1 (centres undefined),fractional viability,2uM,0.463
same,fractional viability,10uM,0.377
CC(C)(C)Cn1c(N)nc2ccc(-c3[nH]c(C(C)(C)C)nc3-c3ccc(F)cc3)nc21,fractional viability,2uM,1.04
same,fractional viability,10uM,0.96
CCCN[C@H]1CCc2nc(N)sc2C1 [Pramipexole],fractional viability,2uM,0.84
same,fractional viability,10uM,0.933
C/C=C1/[C@H](O[C@@H]2O[C@H](CO)[C@@H](O)[C@H](O)[C@H]2O)OC=C(C(=O)OC)[C@H]1CC(=O)OCCc1ccc(O)c(O)c1 [Oleuropein],fractional viability,2uM,0.903
same,fractional viability,10uM,0.896
Cc1cc(=O)oc2cc(O)ccc12 [4-Methylumbelliferone (4-MU)],fractional viability,2uM,1.09
same,fractional viability,10uM,0.917
COc1cccc(-c2ccc(NC(=O)C3=C(C(=O)O)CCC3)c(F)c2)c1 [Vidofludimus],fractional viability,2uM,0.835
same,fractional viability,10uM,0.543
Clc1cccc(-c2nnnn2Cc2cccnc2)c1Cl,fractional viability,2uM,0.9
same,fractional viability,10uM,0.792
Nc1ncn([C@@H]2O[C@H](CO)[C@@H](O)[C@H]2O)c(=O)n1 [Azacitidine],fractional viability,2uM,1.19
same,fractional viability,10uM,1.11
CC(COc1ccccc1)N(CCCl)Cc1ccccc1 (centres undefined) [Phenoxybenzamine HCl],fractional viability,2uM,0.639
same,fractional viability,10uM,0.481
CCCNC(C)C(=O)Nc1ccccc1C (centres undefined) [Prilocaine],fractional viability,2uM,1.14
same,fractional viability,10uM,0.966
CC(=O)Nc1cccc2c1c(Sc1ccc(Cl)cc1)c(C)n2CC(=O)O,fractional viability,2uM,0.976
same,fractional viability,10uM,0.913
O=C(Nc1ccc(OC(F)(F)F)cc1)c1sccc1NCc1ccnc2ccccc12,fractional viability,2uM,1.18
same,fractional viability,10uM,0.525
COc1cc(/C=C/C(=O)N2CCN(CC(=O)N3CCCC3)CC2)cc(OC)c1OC [Cinepazide maleate],fractional viability,2uM,0.929
same,fractional viability,10uM,0.991
Cc1c(-c2ccnn2C)cc(C(=O)NCc2ccc(S(C)(=O)=O)cn2)c(=O)n1-c1cccc(C(F)(F)F)c1 [Alvelestat (AZD9668)],fractional viability,2uM,0.916
same,fractional viability,10uM,0.938
CC(C)(C)c1[nH]cnc1/C=c1\[nH]c(=O)/c(=C/c2ccccc2)[nH]c1=O [Plinabulin (NPI-2358)],fractional viability,2uM,0.432
same,fractional viability,10uM,0.441
Cn1c(=O)cc(N2CCC[C@@H](N)C2)n(Cc2cc(F)ccc2C#N)c1=O [Trelagliptin],fractional viability,2uM,1.12
same,fractional viability,10uM,0.9
C=C1c2cccc(O)c2C(=O)C2=C(O)[C@]3(O)C(=O)C(C(N)=O)=C(O)[C@@H](N(C)C)[C@@H]3[C@@H](O)[C@H]12 [Methacycline HCl],fractional viability,2uM,1.53
same,fractional viability,10uM,1.18
N#Cc1ccc(-c2c(-c3ncn[nH]3)sc(N3CCOCC3)c2C#N)c(F)c1,fractional viability,2uM,0.737
same,fractional viability,10uM,0.572
OC[C@H]1O[C@@H](Oc2ccc(O)cc2)[C@H](O)[C@@H](O)[C@@H]1O [Arbutin],fractional viability,2uM,1.2
same,fractional viability,10uM,1.03
O=C(c1ccc(C(=O)N2CCC(N3CCCC3)CC2)c(Nc2ccccc2)c1)N1CCC(N2CCCC2)CC1,fractional viability,2uM,0.924
same,fractional viability,10uM,0.857
CCCC(=O)O[C@]1(C(=O)COC(C)=O)CC[C@H]2[C@@H]3C[C@H](F)C4=CC(=O)C=C[C@]4(C)[C@@]3(F)[C@@H](O)C[C@@]21C [Difluprednate],fractional viability,2uM,1.03
same,fractional viability,10uM,0.934
COc1ccc(NS(=O)(=O)c2ccc(N)cc2)nn1 [Sulfamethoxypyridazine],fractional viability,2uM,0.99
same,fractional viability,10uM,0.859
Nc1ccc(C(=O)NCC(=O)O)cc1 [4-Aminohippuric Acid],fractional viability,2uM,1.01
same,fractional viability,10uM,0.916
N=C(N)NC(=N)N1CCOCC1 [Moroxydine HCl],fractional viability,2uM,0.919
same,fractional viability,10uM,0.883
CC(=O)Oc1cccc2c1C(=O)c1c(OC(C)=O)cc(C(=O)O)cc1C2=O [Diacerein],fractional viability,2uM,0.946
same,fractional viability,10uM,0.847
CCN(CC)Cc1ccc2cc(COC(=O)Nc3ccc(C(=O)NO)cc3)ccc2c1 [Givinostat (ITF2357)],fractional viability,2uM,0.205
same,fractional viability,10uM,0.14
CC(C)(C#N)c1ccc(N2C(=O)OCc3cnc4ccc(-c5cnc6ccccc6c5)cc4c32)cc1,fractional viability,2uM,0.833
same,fractional viability,10uM,0.566
CC(C)C[C@@H](C=O)NC(=O)[C@H](CC(C)C)NC(=O)[C@H](CC(C)C)NC(=O)OCc1ccccc1,fractional viability,2uM,0.236
same,fractional viability,10uM,0.144
COC1=CC(c2cc3ccccc3[nH]2)=N/C1=C\c1[nH]c(C)cc1C [Obatoclax Mesylate (GX15-070)],fractional viability,2uM,0.431
same,fractional viability,10uM,0.283
CC1=CC(=O)NS(=O)(=O)O1 [Acesulfame Potassium],fractional viability,2uM,1.21
same,fractional viability,10uM,1.02
CN(C)CCC[C@@]1(c2ccc(F)cc2)OCc2cc(C#N)ccc21 [Escitalopram Oxalate],fractional viability,2uM,0.99
same,fractional viability,10uM,0.875
CCCC(=O)Nc1ncnc2c1ncn2[C@@H]1O[C@@H]2COP(=O)(O)O[C@H]2[C@H]1OC(=O)CCC [Dibutyryl-cAMP (Bucladesine)],fractional viability,2uM,0.798
same,fractional viability,10uM,0.753
CN1CCCC(n2nc(Cc3ccc(Cl)cc3)c3ccccc3c2=O)CC1 (centres undefined) [Azelastine HCl],fractional viability,2uM,1.12
same,fractional viability,10uM,0.802
CC(=O)OCOC(=O)CN(CC(=O)OCOC(C)=O)c1ccccc1OCCOc1ccccc1N(CC(=O)OCOC(C)=O)CC(=O)OCOC(C)=O,fractional viability,2uM,0.619
same,fractional viability,10uM,0.118
CC(C)C[C@H](NC(=O)[C@H](CCc1ccccc1)NC(=O)CN1CCOCC1)C(=O)N[C@@H](Cc1ccccc1)C(=O)N[C@@H](CC(C)C)C(=O)[C@@]1(C)CO1 [Carfilzomib (PR-171)],fractional viability,2uM,0.0962
same,fractional viability,10uM,0.146
O=S(=O)(c1ccccc1)c1cnc2c(N3CCNCC3)cccc2c1,fractional viability,2uM,0.995
same,fractional viability,10uM,0.838
NC(=O)N/N=C/c1ccc([N+](=O)[O-])o1 [Nitrofural],fractional viability,2uM,1.55
same,fractional viability,10uM,1.47
O=C(O[C@H]1CN2CCC1CC2)N1CCc2ccccc2[C@@H]1c1ccccc1 [Solifenacin succinate],fractional viability,2uM,0.873
same,fractional viability,10uM,0.893
CN(NC(=O)CC(=O)NN(C)C(=S)c1ccccc1)C(=S)c1ccccc1 [Elesclomol (STA-4783)],fractional viability,2uM,0.0864
same,fractional viability,10uM,0.107
CO[C@@H]1[C@@H](OC(N)=O)[C@@H](O)[C@H](Oc2ccc3c(O)c(NC(=O)c4ccc(O)c(CC=C(C)C)c4)c(=O)oc3c2C)OC1(C)C [Novobiocin Sodium],fractional viability,2uM,0.928
same,fractional viability,10uM,0.985
NC(=O)c1cnc2[nH]ccc2c1N[C@@H]1[C@@H]2CC3C[C@H]1C[C@@](O)(C3)C2,fractional viability,2uM,0.989
same,fractional viability,10uM,1
CCN1CCN(C(=O)N[C@@H](C(=O)N[C@@H]2C(=O)N3[C@@H]2SC(C)(C)[C@@H]3C(=O)O)c2ccccc2)C(=O)C1=O [Piperacillin Sodium],fractional viability,2uM,0.781
same,fractional viability,10uM,0.962
CCN(Cc1ccncc1)C(=O)C(CO)c1ccccc1 (centres undefined) [Tropicamide],fractional viability,2uM,1.01
same,fractional viability,10uM,0.939
Cc1ncc([N+](=O)[O-])n1CCO [Metronidazole],fractional viability,2uM,1.25
same,fractional viability,10uM,1.88
O=C(Cc1cccc(OC(F)(F)F)c1)Nc1ccc(CCCCc2nnc(NC(=O)Cc3ccccn3)s2)nn1,fractional viability,2uM,0.25
same,fractional viability,10uM,0.2
CCN(CC)CC#CCOC(=O)C(O)(c1ccccc1)C1CCCCC1 (centres undefined) [Oxybutynin chloride],fractional viability,2uM,1.02
same,fractional viability,10uM,0.969
CCN(CC)CC#CCOC(=O)C(O)(c1ccccc1)C1CCCCC1 (centres undefined) [Oxybutynin],fractional viability,2uM,0.902
same,fractional viability,10uM,0.775
CC(=O)O/N=C1\C(=O)N(Cc2cc(Cl)ccc2Cl)c2ccc(Cl)cc21,fractional viability,2uM,1.06
same,fractional viability,10uM,0.985
C=CC[C@@H]1/C=C(\C)C[C@H](C)C[C@H](OC)[C@H]2O[C@@](O)(C(=O)C(=O)N3CCCC[C@H]3C(=O)O[C@H](/C(C)=C/[C@@H]3CC[C@@H](O)[C@H](OC)C3)[C@H](C)[C@@H](O)CC1=O)[C@H](C)C[C@@H]2OC [Tacrolimus (FK506)],fractional viability,2uM,0.935
same,fractional viability,10uM,0.747
O=C(N/N=C/c1ccc(O)c(O)c1)c1cc2ccccc2cc1O [Dynasore],fractional viability,2uM,0.819
same,fractional viability,10uM,0.86
Cc1ccc(C(=O)c2cc(O)c(O)c([N+](=O)[O-])c2)cc1 [Tolcapone],fractional viability,2uM,0.826
same,fractional viability,10uM,0.845
O=C([O-])c1ccccc1O.[Na+] [Sodium salicylate],fractional viability,2uM,0.951
same,fractional viability,10uM,0.945
COc1ccc2[nH]cc(CCNC(C)=O)c2c1 [Melatonin],fractional viability,2uM,1.01
same,fractional viability,10uM,1.12
Cc1cc([N+](=O)[O-])ccc1NS(=O)(=O)c1cc(Cl)ccc1Cl,fractional viability,2uM,0.656
same,fractional viability,10uM,0.476
COc1ccc(COc2ccc(Cc3cnc(N)nc3N)cc2OC)cc1,fractional viability,2uM,0.81
same,fractional viability,10uM,0.833

# Source: the supplement of paper PMC5919970
